{
  "source": "PubChem BioAssay (Tox21)",
  "note": "Values joined by “and” are separate entries in the source; they are usually repeats but may differ in a detail not shown here. Equal entries are not always repeated. The inconclusive results got no clear call from the source; some entries with a clear call stand among them for comparison. Potencies beside an inconclusive call are fits to weak or partial responses and may not hold up. Active and inactive are the calls of the source. Unless noted, calls come from the whole dose curve; as a rule, active = well fitted curve in the direction sought with a large enough effect in the repeat runs; inconclusive = weak or mixed curves; inactive = no such curve, though single readings can be large; an effect the other way counts as inactive or inconclusive. % is set by controls: 0 for no effect and ±100 for the full control effect; potency is the fitted concentration of half-maximal effect; tags give direction and shape of the fitted curve or compound fluorescence and quenching.",
  "data": [
    {"tested_on": "not listed separately", "test": "qHTS assay to identify aromatase inhibitors - cell viability counter screen (AID 743084);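 note: cells stimulated with testosterone during compound exposure; nearly all actives have a fitted effect of over 55% in size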", "settings": "MCF-7 aro ERE viability, CellTiter-Fluor, 24 h; activity change, negative = cytotoxicity: at 70.3 µM (top of the series)", "values": [
      {"smiles": "CCCC(C)C", "Potency": "inconclusive: 69.3 µM [cytotoxic, partial curve, poor fit]"},
      {"smiles": "O=C(Nc1ccccc1)c1cc([N+](=O)[O-])ccc1Cl", "Potency": "inconclusive: 61.1 µM [cytotoxic, partial curve, poor fit]"},
      {"smiles": "CC(=O)OCC(=O)[C@H]1CC[C@H]2[C@@H]3CCC4=CC(=O)CC[C@]4(C)[C@H]3CC[C@]12C", "Potency": "inactive"},
      {"smiles": "C=CC(=O)OCC(C)OCC(C)OCC(C)OC(=O)C=C", "note": "(centres undefined)", "Potency": "active: 48.6 µM"},
      {"smiles": "CCc1c2c(nc3ccc(OC(=O)N4CCC(N5CCCCC5)CC4)cc13)-c1cc3c(c(=O)n1C2)COC(=O)[C@]3(O)CC", "Potency": "inconclusive: 26.6 µM [rising, partial curve, poor fit]"},
      {"smiles": "O=S1(=O)c2cccc3cccc(c23)N1CCCN1CCN(c2ccc(F)cc2)CC1", "Potency": "inconclusive: 11.9 µM [cytotoxic, partial curve, poor fit]"},
      {"smiles": "CCCCCCCCCCCCC(=O)O", "Potency": "inactive"},
      {"smiles": "COC(=O)N[C@H](C(=O)N[C@@H](Cc1ccccc1)[C@@H](O)CN(Cc1ccc(-c2ccccn2)cc1)NC(=O)[C@@H](NC(=O)OC)C(C)(C)C)C(C)(C)C", "Potency": "inconclusive: 33.5 µM [cytotoxic, single point]"}
    ]},
    {"target": "Aryl hydrocarbon receptor (Homo sapiens) (UniProt P35869)", "sequence (P35869 whole entry, looked up)": "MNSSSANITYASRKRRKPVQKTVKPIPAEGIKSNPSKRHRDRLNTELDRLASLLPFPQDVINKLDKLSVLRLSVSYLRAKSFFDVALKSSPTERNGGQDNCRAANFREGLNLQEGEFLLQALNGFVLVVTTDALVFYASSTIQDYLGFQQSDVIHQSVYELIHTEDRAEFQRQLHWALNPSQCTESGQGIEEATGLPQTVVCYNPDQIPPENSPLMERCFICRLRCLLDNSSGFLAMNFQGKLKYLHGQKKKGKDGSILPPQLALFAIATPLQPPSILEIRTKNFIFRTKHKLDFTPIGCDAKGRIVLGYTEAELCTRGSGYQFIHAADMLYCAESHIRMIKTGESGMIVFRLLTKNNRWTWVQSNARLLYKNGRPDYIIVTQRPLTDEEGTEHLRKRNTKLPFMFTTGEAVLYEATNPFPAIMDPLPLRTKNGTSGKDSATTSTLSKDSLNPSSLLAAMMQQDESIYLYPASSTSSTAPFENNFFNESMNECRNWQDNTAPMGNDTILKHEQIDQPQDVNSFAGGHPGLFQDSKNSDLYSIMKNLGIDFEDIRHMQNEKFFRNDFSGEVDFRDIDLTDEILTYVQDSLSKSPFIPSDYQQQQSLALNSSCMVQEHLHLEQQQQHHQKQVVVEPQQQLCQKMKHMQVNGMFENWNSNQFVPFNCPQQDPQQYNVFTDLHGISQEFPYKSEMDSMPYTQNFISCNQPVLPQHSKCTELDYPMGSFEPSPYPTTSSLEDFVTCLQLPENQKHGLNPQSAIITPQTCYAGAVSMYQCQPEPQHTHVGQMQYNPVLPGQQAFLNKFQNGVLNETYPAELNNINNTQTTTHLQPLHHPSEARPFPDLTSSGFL", "test": "qHTS assay to identify small molecule that activate the aryl hydrocarbon receptor (AhR) signaling pathway (AID 743085); note: nearly all actives have a fitted effect of over 15% in size;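 for activation: HG2L7.5c1 human HepG2 liver cells with stably integrated DRE-driven firefly reporter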", "settings": "HepG2 AhR-luc (HG2L7.5c1), luciferase, 24 h; series mostly up to 70.3 µM", "method_in_brief": "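Measured in HG2L7.5c1 cells: CellTiter-Fluor signal (30 min incubation, 37C) for viability, then luciferase luminescence (30 min, room temperature). Compound contact time was 24 h at 37C, following a 5 h pre-incubation.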", "values": [
      {"smiles": "Nc1ccc(S(=O)(=O)c2ccc(N)cc2)cc1", "Potency": "inactive"},
      {"smiles": "CC(C)(C)NCC(O)COc1ccc(NC(=O)NC2CCCCC2)cc1", "note": "(centres undefined)", "Potency": "inconclusive: 21.1 µM [activator, partial curve]"},
      {"smiles": "C[C@]12CCC(=O)C=C1CC[C@H]1[C@@H]3CC[C@](O)(C(=O)CO)[C@@]3(C)C[C@H](O)[C@@]12F", "Potency": "inconclusive: 16.8 µM [activator, partial curve, poor fit] and inactive"},
      {"smiles": "CC(=O)OCC(=O)[C@@]12N=C(C)O[C@@H]1C[C@H]1[C@@H]3CCC4=CC(=O)C=C[C@]4(C)[C@H]3[C@@H](O)C[C@@]12C", "Potency": "inconclusive: 26.6 µM [activator, partial curve] and inconclusive: 34.4 µM [activator, partial curve, poor fit]"},
      {"smiles": "COc1c2ccoc2cc2oc(=O)ccc12", "Potency": "inconclusive: 11.1 nM [activator, full curve, poor fit] and inconclusive: 10.9 nM [activator, full curve, poor fit]"},
      {"smiles": "O=S1(=O)c2cccc3cccc(c23)N1CCCN1CCN(c2ccc(F)cc2)CC1", "Potency": "inconclusive: 16.8 µM [activator, partial curve, poor fit]"},
      {"smiles": "C#CCN(C)CCCOc1ccc(Cl)cc1Cl", "Potency": "active: 23.7 µM"},
      {"smiles": "O=c1c2ccccc2oc2ccccc12", "Potency": "inconclusive: 61.1 µM [activator, single point]"},
      {"smiles": "O=C(NS(=O)(=O)/C=C/c1cccs1)c1ccc(F)cc1Br", "Potency": "inconclusive: 61.1 µM [activator, partial curve, poor fit]"}
    ]},
    {"tested_on": "not listed separately", "test": "qHTS assay to identify small molecule that activate the aryl hydrocarbon receptor (AhR) signaling pathway - cell viability counter screen (AID 743086); note: nearly all actives have a fitted effect of over 45% in size", "settings": "HepG2-AhR-luc viability, CellTiter-Fluor, 24 h; series mostly up to 70.3 µM", "method_in_brief": "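HepG2-AhR-luc (HG2L7.5c1) cells, 4000/well, treated 24 h at 37 C with compound; viability measured as CellTiter-Fluor fluorescence after 30 min in the same wells as the luciferase read.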", "values": [
      {"smiles": "O=C(Nc1ccccc1)c1cc([N+](=O)[O-])ccc1Cl", "Potency": "inconclusive: 68.6 µM [falling, partial curve, poor fit]"},
      {"smiles": "CCC(Cc1ccccc1)(C(=O)c1ccc(N2CCOCC2)cc1)N(C)C", "note": "(centres undefined)", "Potency": "inconclusive: 38.6 µM [falling, partial curve, poor fit]"},
      {"smiles": "CC(=O)OCC(=O)[C@@]12N=C(C)O[C@@H]1C[C@H]1[C@@H]3CCC4=CC(=O)C=C[C@]4(C)[C@H]3[C@@H](O)C[C@@]12C", "Potency": "inconclusive: 5.96 µM [rising, partial curve]"},
      {"smiles": "CC1(C)O[C@@H]2C[C@H]3[C@@H]4CCC5=CC(=O)C=C[C@]5(C)[C@H]4[C@@H](O)C[C@]3(C)[C@]2(C(=O)CO)O1", "Potency": "inactive"},
      {"smiles": "c1ccc2c(c1)ccc1ccccc12", "Potency": "inactive"},
      {"smiles": "Cc1nc2sccn2c(=O)c1CCN1CCC(=C(c2ccc(F)cc2)c2ccc(F)cc2)CC1", "Potency": "inconclusive: 26.6 µM [falling, partial curve, poor fit]"}
    ]},
    {"target": "Peroxisome proliferator-activated receptor gamma (Homo sapiens) (UniProt P37231)", "sequence (P37231 whole entry, looked up)": "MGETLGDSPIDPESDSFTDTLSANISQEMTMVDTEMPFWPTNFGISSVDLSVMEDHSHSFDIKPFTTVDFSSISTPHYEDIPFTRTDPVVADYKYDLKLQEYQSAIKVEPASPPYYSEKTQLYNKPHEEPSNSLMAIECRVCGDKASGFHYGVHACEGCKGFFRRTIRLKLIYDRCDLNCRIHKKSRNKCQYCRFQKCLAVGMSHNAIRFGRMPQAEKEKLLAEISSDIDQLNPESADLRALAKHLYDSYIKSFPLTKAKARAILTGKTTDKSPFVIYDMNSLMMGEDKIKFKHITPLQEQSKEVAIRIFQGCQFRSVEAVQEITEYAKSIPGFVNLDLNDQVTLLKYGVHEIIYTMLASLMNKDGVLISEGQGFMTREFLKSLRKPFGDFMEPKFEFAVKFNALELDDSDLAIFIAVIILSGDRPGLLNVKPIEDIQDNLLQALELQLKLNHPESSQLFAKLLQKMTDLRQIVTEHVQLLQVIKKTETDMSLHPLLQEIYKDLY", "test": "qHTS assay to identify small molecule agonists of the peroxisome proliferator-activated receptor gamma (PPARg) signaling pathway (AID 743094; active = well fitted activation curve with a large enough effect in the signal ratio in the repeat runs, not every such curve was filed as active; inconclusive = weak or mixed curves, or effect the other way; inactive = no such curve, though single readings can be large or run the other way; the % refers to the signal ratio)", "settings": "HEK293H PPARg-UAS-bla, beta-lactamase FRET ratio, 17 h; activation: at 57 µM (top of the series) unless noted", "method_in_brief": "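HEK293H PPARg-bla cells, 5 h settle at 37C/5% CO2; compound (DMSO) 17 h, 37C; B/G FRET substrate 1 h RT; fluorescence intensity read-out. qHTS format.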", "values": [
      {"smiles": "COc1cc(NC(=O)CC(C)=O)c(OC)cc1Cl", "activation": "inconclusive: -18.7%"},
      {"smiles": "CC(C)(C)NCC(O)COc1ccc(NC(=O)NC2CCCCC2)cc1", "note": "(centres undefined)", "Potency": "inactive"},
      {"smiles": "O=C(Nc1ccc(Cl)c(Cl)c1)C1CC1", "Potency": "inactive"},
      {"smiles": "CC(C(=O)O)c1ccc(C(=O)c2ccccc2)s1", "note": "(centres undefined)", "activation": "inconclusive: 5.46% [at 26.2 µM]"},
      {"smiles": "CCCCc1ccc2nc(NC(=O)OC)[nH]c2c1", "Potency": "inactive"},
      {"smiles": "CC1(C)O[C@@H]2C[C@H]3[C@@H]4CCC5=CC(=O)C=C[C@]5(C)[C@H]4[C@@H](O)C[C@]3(C)[C@]2(C(=O)CO)O1", "activation": "inconclusive: 0.127%"},
      {"smiles": "O=C1c2cccc(O)c2C(=O)c2c(O)cc(CO)cc21", "Potency": "inconclusive: 6.92 µM [activator, full curve, poor fit]"},
      {"smiles": "COc1c2ccoc2cc2oc(=O)ccc12", "activation": "inconclusive: 15% [at 78.9 µM]"},
      {"smiles": "C=CC(=O)OCC(C)OCC(C)OCC(C)OC(=O)C=C", "note": "(centres undefined)", "Potency": "inconclusive: 61.6 µM [fluorescent]"},
      {"smiles": "CCc1c2c(nc3ccc(OC(=O)N4CCC(N5CCCCC5)CC4)cc13)-c1cc3c(c(=O)n1C2)COC(=O)[C@]3(O)CC", "activation": "inconclusive: -11.2%"},
      {"smiles": "COc1cccc(N(C)C(=S)Oc2ccc3c(c2)CCCC3)n1", "activation": "inconclusive: 5.1%"},
      {"smiles": "Cc1nc(-c2ccccn2)ncc1C(=O)Nn1cc(C)c2cc(F)ccc21", "activation": "inconclusive: -16.7%"},
      {"smiles": "C#CCN(C)CCCOc1ccc(Cl)cc1Cl", "Potency": "inactive"},
      {"smiles": "COC(=O)N[C@H](C(=O)N[C@@H](Cc1ccccc1)[C@@H](O)CN(Cc1ccc(-c2ccccn2)cc1)NC(=O)[C@@H](NC(=O)OC)C(C)(C)C)C(C)(C)C", "Potency": "inconclusive: 0.952 µM [activator, single point]"},
      {"smiles": "O=C(NS(=O)(=O)/C=C/c1cccs1)c1ccc(F)cc1Br", "activation": "inconclusive: 3.04%"},
      {"smiles": "Cc1nc2sccn2c(=O)c1CCN1CCC(=C(c2ccc(F)cc2)c2ccc(F)cc2)CC1", "Potency": "inconclusive: 9.52 µM [fluorescent, partial curve, poor fit]"}
    ]}
  ]
}
